Laboratory results taken from publication doi:10.1101/2022.04.12.488020 (bioRxiv, 2022).

Biological target: the molecule itself
Assay: cross-linking

B1: full-length human TLR5, HA-tagged (TLR5-HA) (receptor)
chain: not shown
For B1, the “stoichiometry N” value was 2.
